# Results published in PMC4336329 (PLoS ONE, 2015).
# The whole screen tested about 310,000 compounds, of which about 14,000 (4.5%) showed an effect of 50% or more. The effect is printed as a negative number. The list shows a part of the results.
# Target: human ether-à-go-go-related gene (hERG) potassium channel (human, UniProt Q12809)
# Assay: primary screen, population patch clamp on CHO cells stably expressing hERG
# 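Further: peak tail current of the secondary pulse compared with the same well before compound.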
# human ether-à-go-go-related gene (hERG) potassium channel, sequence (Q12809 whole entry, looked up): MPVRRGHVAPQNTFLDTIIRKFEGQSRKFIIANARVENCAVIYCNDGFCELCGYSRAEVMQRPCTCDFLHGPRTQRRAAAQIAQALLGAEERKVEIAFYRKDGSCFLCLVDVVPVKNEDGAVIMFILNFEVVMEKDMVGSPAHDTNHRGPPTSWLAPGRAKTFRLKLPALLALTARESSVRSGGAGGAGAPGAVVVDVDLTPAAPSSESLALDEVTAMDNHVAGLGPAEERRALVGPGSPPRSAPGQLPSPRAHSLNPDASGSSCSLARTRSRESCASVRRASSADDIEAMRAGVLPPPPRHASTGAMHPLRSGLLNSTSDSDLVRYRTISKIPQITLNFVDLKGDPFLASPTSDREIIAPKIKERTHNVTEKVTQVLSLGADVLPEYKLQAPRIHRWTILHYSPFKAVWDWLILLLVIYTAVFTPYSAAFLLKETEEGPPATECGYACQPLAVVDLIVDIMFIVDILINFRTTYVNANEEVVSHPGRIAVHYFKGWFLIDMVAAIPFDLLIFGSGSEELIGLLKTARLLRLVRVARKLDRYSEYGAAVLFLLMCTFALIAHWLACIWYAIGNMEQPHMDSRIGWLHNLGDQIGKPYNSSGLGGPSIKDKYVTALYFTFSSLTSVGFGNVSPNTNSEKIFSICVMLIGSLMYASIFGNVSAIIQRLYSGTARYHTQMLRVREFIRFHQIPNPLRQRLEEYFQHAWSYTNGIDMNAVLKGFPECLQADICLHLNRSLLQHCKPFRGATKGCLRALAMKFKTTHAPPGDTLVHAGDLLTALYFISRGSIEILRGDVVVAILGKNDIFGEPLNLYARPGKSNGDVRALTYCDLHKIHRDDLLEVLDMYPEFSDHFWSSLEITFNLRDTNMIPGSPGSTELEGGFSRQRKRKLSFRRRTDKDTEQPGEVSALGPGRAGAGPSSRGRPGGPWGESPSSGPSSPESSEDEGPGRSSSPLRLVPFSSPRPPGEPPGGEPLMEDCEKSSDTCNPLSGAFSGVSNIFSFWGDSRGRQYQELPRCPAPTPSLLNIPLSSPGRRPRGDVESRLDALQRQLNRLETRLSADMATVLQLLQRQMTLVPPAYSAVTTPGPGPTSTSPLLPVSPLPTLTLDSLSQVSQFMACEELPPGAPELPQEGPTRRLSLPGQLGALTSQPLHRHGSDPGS
row,SMILES,"hERG current change (%, negative = inhibition) at 10uM"
1,O=C(Cn1nc(-c2ccccc2)ccc1=O)NCCCN1CCOCC1,1.56%
2,C=CCn1c(Sc2nc(C)cs2)nc2c1c(=O)[nH]c(=O)n2C,4.13%
3,O=C(O)c1cc(N/N=C/c2ccncc2)ccc1Cl,9.7%
4,Cc1ccc([N+](=O)[O-])cc1NC(=O)c1ccc(-c2ccccc2)cc1,5.12%
5,CCOc1cc(C(=O)NC(C)CCc2ccccc2)cc(OCC)c1OCC (centres unmarked),-3.09%
6,CCO[C@@H]1OC(C(=O)Nc2ccccc2)=C[C@H](c2ccccc2)[C@H]1CCCO,-31.2%
7,COc1ccc(C(=O)NC(=S)NC(C)c2ccccc2)cc1 (centres unmarked),21.8%
8,CCN(CC)S(=O)(=O)c1ccc(N(C)Cc2ccc(C(F)(F)F)cc2)nc1,3.01%
9,CCCCNCc1nc2ccccc2c(=O)[nH]1.Cl,5.81%
10,Cc1ccc(C(C(=O)NC2CCCC2)N(C(=O)Cc2cccs2)c2ccc(C)c(C)c2)o1 (centres unmarked),-26.1%
11,Cc1ccc(NC2CCCN(C(=O)c3cnsn3)C2)cc1C (centres unmarked),5.9%
12,CC1CCN(C(=O)COC(=O)c2cc(Cl)cc(Cl)c2N)CC1,-19.9%
13,O=C1CC(SCc2nc3ccccc3[nH]2)C(=O)N1c1ccc(F)cc1 (centres unmarked),1.5%
14,Cc1ccccc1NS(=O)(=O)c1ccc(-c2ccc(=O)[nH]n2)o1,-2.13%
15,Cc1cccc(NC(=O)c2cc(NC(=O)c3ccccc3)ccc2N2CCCCC2)c1,1.58%
16,CCCCN(C(=O)Cc1ccc(S(=O)(=O)N2CCOCC2)s1)c1ccccc1,-30.2%
17,Cc1cc(NS(=O)(=O)c2ccc(NC(=O)c3cc(-c4cccnc4)nc4ccc(Cl)cc34)cc2)no1,1.95%
18,COc1ccccc1N1CCN(/N=C(\C)c2ccc(O)cc2)CC1,12.8%
19,NC(=O)C1CCN(C(c2ccccc2Cl)c2nnnn2Cc2ccc3c(c2)OCO3)CC1 (centres unmarked),-25.8%
20,COc1ccc(Cn2nnnc2C(c2cc3cc(C)ccc3[nH]c2=O)N2CCOCC2)cc1 (centres unmarked),-50.2%
21,CCC(=O)Nc1ccc(C(=O)CSc2nc(N)cc(N)n2)cc1,5.78%
22,CC12CCC(C(=O)NCc3ccccc3Cl)(C(Br)C1=O)C2(C)C (centres unmarked),14.6%

row,SMILES,"hERG current change (%, negative = inhibition) at 10uM"
1,COc1ccc(N2CCN(CCCNC(=O)C(=O)c3c[nH]c4ccccc34)CC2)cc1,-69.7%
2,CC(C)O.COc1cccc(C2C3=C(CC(C)(C)CC3=O)Nc3n[nH]c(C)c32)c1 (centres unmarked),7.39%
3,CC1=CC(C)(C)N(C(=O)CSc2nccn2C)c2cc(C)ccc21,-0.933%
4,COc1cc(NS(=O)(=O)c2ccc(C)c(C)c2)c(OC)cc1Cl,-12.3%
5,O=C(CN(Cc1ccc(F)cc1)C(=O)CNS(=O)(=O)c1ccc(F)cc1)NCc1ccco1,12.6%
6,COC(=O)C1CCN(C(=O)c2ccccc2Oc2ccccc2)CC1,1.87%
7,O=C(N/N=C/c1ccc(C(=O)O)cc1)C1=NNC(c2ccccc2)(c2ccccc2)C1,7.44%
8,Cc1cccc(/C=N\N=C\c2cccc(C)c2)c1,16.1%
9,O=[N+]([O-])/C(C(Cl)=C(Cl)Cl)=C1\Nc2ccccc2O1,13%
10,CN(CCc1cn[nH]c1)C(=O)CC1C(=O)NCCN1Cc1ccccc1C(F)(F)F (centres unmarked),17.8%
11,O=C(N/N=C/c1cccs1)c1ccccn1,14%
12,Cc1cccc(Nc2nc(-c3ccc(F)c(C)c3)cs2)n1,15.8%
13,COc1ccc(S(=O)(=O)Cc2ccc(C(=O)N3CCCC3)o2)cc1,1.74%
14,Cc1ccc2c(c1)S/C(=C/c1ccc[n+](CCO)c1)N2C.[I-],16%
15,COc1ccc(N2CCN(C(=O)Cn3nnc(-c4ccc(N(C)C)cc4)n3)CC2)cc1,2.72%
16,Cc1ccc(Nc2cc(C)nc3nc(C)nn23)cc1,-24.5%
17,COCCn1c(SCC(=O)N2CCCC(C)C2)nnc1-c1ccco1 (centres unmarked),13.2%
18,C/C(=N\NC(=O)COc1cccc(C)c1)c1ccc2ccccc2c1O,0.465%
19,Cc1cc(OC2CCCCC2)nc(-c2ccccc2O)n1,19.6%
20,COc1ccc(-c2nnn(CC(=O)N(C3CCCC3)C(C)C(=O)NC3CCCC3)n2)cc1OC (centres unmarked),-29.2%
21,Cc1ccc(-n2c(C)nc3ccsc3c2=O)cc1,1.42%
22,COC(=O)[C@H]1C[C@@H]1[C@H](NC(=O)c1cnccn1)c1ccccc1,3.44%
